Data: PMC10726135
Some of the results follow. At the low end of the ranking the order means little. The protein was read in a cell extract, so binding may be indirect.

Target: T1, HNF4alpha8 (COS-7 nuclear extract) (UniProt P41235-5)
T1 sequence: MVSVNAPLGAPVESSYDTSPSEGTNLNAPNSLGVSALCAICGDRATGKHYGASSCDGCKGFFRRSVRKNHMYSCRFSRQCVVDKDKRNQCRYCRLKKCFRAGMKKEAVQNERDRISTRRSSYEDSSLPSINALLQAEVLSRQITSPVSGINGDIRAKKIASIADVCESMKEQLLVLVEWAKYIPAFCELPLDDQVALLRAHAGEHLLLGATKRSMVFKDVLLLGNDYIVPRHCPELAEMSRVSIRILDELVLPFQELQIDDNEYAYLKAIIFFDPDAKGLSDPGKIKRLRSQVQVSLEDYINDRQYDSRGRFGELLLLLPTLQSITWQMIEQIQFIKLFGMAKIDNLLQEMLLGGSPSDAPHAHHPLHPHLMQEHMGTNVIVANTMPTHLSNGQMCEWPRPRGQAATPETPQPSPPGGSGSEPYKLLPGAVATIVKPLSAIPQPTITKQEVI
Test: protein-binding microarray
Details: COS-7 nuclear extract on double-stranded Agilent 4x180k PBM; binding buffer, salt, pH and temperature not given; high values mean tight binding; double strand, one strand shown; sequences stand for … in …GCCTAGGGAGATTAGAGTATCGGTCGA

**Q.** Which binding signal (log2 normalized intensity) does the source give for GATGATTCTAAAGGCACAATCAGGGCTAAA here?
**A.** The binding signal (log2 normalized intensity) was -1.35.

**Q.** TTAACCTTTGATCTGTAAGCTCTCTGCTTA was tested. Which binding signal (log2 normalized intensity) did it give?
**A.** The binding signal (log2 normalized intensity) was 4.45.

**Q.** For CTTTGGACTTGAATTATCCTTATGGTCTCT, which binding signal (log2 normalized intensity) is on record?
**A.** The binding signal (log2 normalized intensity) was 0.611.

**Q.** With TCTGAGGGCTACTATCTGAAGACTTCCTCT as the sequence, how does the binding signal (log2 normalized intensity) read?
**A.** The binding signal (log2 normalized intensity) was -1.2.

**Q.** For GGACCTGAGGCTTTTGAGTCAATAATGGAC, which binding signal (log2 normalized intensity) is on record?
**A.** Its binding signal (log2 normalized intensity) is 1.38.

**Q.** With TGAACTTCATGTGTGGTGCAGATTCCACAC as the sequence, how does the binding signal (log2 normalized intensity) read?
**A.** Its binding signal (log2 normalized intensity) is 1.2.

**Q.** CCTGCATATCCTGACTGCTGACCTTTAAGC was tested. Which binding signal (log2 normalized intensity) did it give?
**A.** The binding signal (log2 normalized intensity) was 5.56.

**Q.** With GGCGGGGCGGGGCAGCAGGGAAGAGCCGGC as the sequence, how does the binding signal (log2 normalized intensity) read?
**A.** The binding signal (log2 normalized intensity) was -1.34.

**Q.** With GTACCTGCGACTGAGCCCTAAGAAATCTCC as the sequence, how does the binding signal (log2 normalized intensity) read?
**A.** The binding signal (log2 normalized intensity) was -1.32.

**Q.** For CAGACTGCTGTGTTACTAGAGCCAAGGAAG, which binding signal (log2 normalized intensity) is on record?
**A.** The binding signal (log2 normalized intensity) was -1.04.

**Q.** For GAGGCTTCTGGCCAGGCAGAGCAGGTTCTC, which binding signal (log2 normalized intensity) is on record?
**A.** Its binding signal (log2 normalized intensity) is -1.37.

**Q.** With AAGTACATTAATATACTGTGTATACAAAGA as the sequence, how does the binding signal (log2 normalized intensity) read?
**A.** Its binding signal (log2 normalized intensity) is 1.12.

**Q.** Which binding signal (log2 normalized intensity) does the source give for TCTCCTGTTCTCTTTATTTATTAACTGGAG here?
**A.** The binding signal (log2 normalized intensity) was 1.04.

**Q.** With CTGGAACTCAAAGGTCAAATGACAGAAGCA as the sequence, how does the binding signal (log2 normalized intensity) read?
**A.** The binding signal (log2 normalized intensity) was 3.85.

**Q.** Which binding signal (log2 normalized intensity) does the source give for CTCAGAATCTGCCGATCACTGGCCCAGCTG here?
**A.** Its binding signal (log2 normalized intensity) is -1.31.

**Q.** Which binding signal (log2 normalized intensity) does the source give for AAGGGTCTCCTGGAATGCAAGACCTCAGCC here?
**A.** The binding signal (log2 normalized intensity) was -1.28.

**Q.** For GCTAAGTGGAGGATTTGGGTGATGTTTGGT, which binding signal (log2 normalized intensity) is on record?
**A.** The binding signal (log2 normalized intensity) was 1.4.

**Q.** How did the binding signal (log2 normalized intensity) turn out when CACTCTTGCTATGCAAACAGACTGGCGGCG was run?
**A.** Its binding signal (log2 normalized intensity) is -1.39.

**Q.** How did the binding signal (log2 normalized intensity) turn out when CACCTGCCTGAACAAGTCCAGTGACGGGTA was run?
**A.** Its binding signal (log2 normalized intensity) is -0.921.

**Q.** For TCCAGAAAAGACCAAAAAGGCTAACTTACC, which binding signal (log2 normalized intensity) is on record?
**A.** The binding signal (log2 normalized intensity) was -1.23.

**Q.** For GAGCAGCTCTGTATTGAGATAAGCAAGACT, which binding signal (log2 normalized intensity) is on record?
**A.** Its binding signal (log2 normalized intensity) is -1.34.

**Q.** How did the binding signal (log2 normalized intensity) turn out when GTCCTGCTGGTTTGCCATTTGGAGAGAGTT was run?
**A.** Its binding signal (log2 normalized intensity) is 1.13.

**Q.** With TAGCACCTTCCAGCAGCAGGCCTGGGGGCA as the sequence, how does the binding signal (log2 normalized intensity) read?
**A.** Its binding signal (log2 normalized intensity) is 0.406.

**Q.** How did the binding signal (log2 normalized intensity) turn out when TGTTGCAAGCAATGGAGAGGATTTTGGAAT was run?
**A.** The binding signal (log2 normalized intensity) was 0.887.

**Q.** Which binding signal (log2 normalized intensity) does the source give for TTTGCCAAAGCATAGCAAGAGTGACCTTTG here?
**A.** The binding signal (log2 normalized intensity) was 7.18.

**Q.** How did the binding signal (log2 normalized intensity) turn out when ATTCCCCGACTCCTGGGTGTGAGATAAGGC was run?
**A.** Its binding signal (log2 normalized intensity) is 0.0557.

**Q.** With GCAGGAGGAGGAGCCAGTGAAGACTGAAAA as the sequence, how does the binding signal (log2 normalized intensity) read?
**A.** The binding signal (log2 normalized intensity) was -1.44.

**Q.** Which binding signal (log2 normalized intensity) does the source give for TGCCTTTCCCTTATCAGGACTTTGTGATTA here?
**A.** The binding signal (log2 normalized intensity) was 3.28.

**Q.** How did the binding signal (log2 normalized intensity) turn out when ATTCTCCAGTCCGAAGGTCCACCCGTCCGC was run?
**A.** Its binding signal (log2 normalized intensity) is 2.62.

**Q.** Which binding signal (log2 normalized intensity) does the source give for ACATGGTCCAGTCACAGCAAAAGTAGCCTG here?
**A.** The binding signal (log2 normalized intensity) was -1.22.

**Q.** Which binding signal (log2 normalized intensity) does the source give for ATTATCCCCCTATCCCAAGACATCAATTAA here?
**A.** Its binding signal (log2 normalized intensity) is 3.96.

**Q.** ATCCCACCAAAACCAAGATAGTGACGGAGG was tested. Which binding signal (log2 normalized intensity) did it give?
**A.** The binding signal (log2 normalized intensity) was -1.37.

**Q.** TCTCACTCACCCTAAGCCCTGCTCAGGGAA was tested. Which binding signal (log2 normalized intensity) did it give?
**A.** The binding signal (log2 normalized intensity) was -1.15.

**Q.** For ACAGGGATTACGATCCTGCCCTTCTGACCT, which binding signal (log2 normalized intensity) is on record?
**A.** Its binding signal (log2 normalized intensity) is 5.92.

**Q.** How did the binding signal (log2 normalized intensity) turn out when GTGGGTTTAAGTAAGCCCCCTTCCCCCCTG was run?
**A.** The binding signal (log2 normalized intensity) was 5.17.

**Q.** How did the binding signal (log2 normalized intensity) turn out when CATTCTCAGCTGCCACTGGAAGCTCTTCTG was run?
**A.** Its binding signal (log2 normalized intensity) is -1.4.

**Q.** How did the binding signal (log2 normalized intensity) turn out when TGTTTGCAAGTCGAGCAAGGTTCAGCACAT was run?
**A.** The binding signal (log2 normalized intensity) was 0.976.

**Q.** How did the binding signal (log2 normalized intensity) turn out when GAATTCCATCCCAGGTCCACAGTGCACATT was run?
**A.** The binding signal (log2 normalized intensity) was 2.26.

**Q.** CAATCAGCCTTAGGTATGCCCCATGGTAAG was tested. Which binding signal (log2 normalized intensity) did it give?
**A.** The binding signal (log2 normalized intensity) was 1.49.

**Q.** AAAACCATTGCAAATTGGATGTTGAACCTC was tested. Which binding signal (log2 normalized intensity) did it give?
**A.** Its binding signal (log2 normalized intensity) is 4.51.
